# From the supplement of paper PMC7826260
# The list shows a part of the results. Viral Rep nickase domains cut single-stranded DNA in vitro for 1 h at 37 °C with 3 µM enzyme; only the middle of the 90-letter strands is printed. Uncut reads are compared with the no-enzyme pool on a log2 scale; uncut sequences lie near 0, cut ones below; no hit call is given. Counts are relative to all reads; where an enzyme cuts many sequences, the uncut ones exceed 0.
# Test system: T1, Rep nickase domain of tomato golden mosaic virus
# T1 sequence (residues 1-124, tag not shown): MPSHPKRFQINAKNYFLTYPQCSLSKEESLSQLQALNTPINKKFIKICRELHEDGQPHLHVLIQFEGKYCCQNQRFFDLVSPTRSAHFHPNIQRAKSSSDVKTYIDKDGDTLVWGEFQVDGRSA
# Experiment: uncleaved DNA left, log2 of reads against the no-enzyme library (log2 ratio); higher = less cleavage (more negative = more Rep cleavage of the k-mer); sequences stand for … in CTCGTCCG…ACCGGAGA
# Protocol: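 A pool of 90-nt single-stranded DNAs with seven random bases just before the constant AC of the nick site (name = the seven bases) was cut by 3 µM recombinant His6-SUMO-tagged Rep nickase domain (300 nM DNA, 50 mM HEPES pH 8.0, 50 mM NaCl, 1 mM MnCl2, 1 h, 37 °C, three replicates). Uncut DNA was amplified and sequenced.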
row,Sequence,uncleaved DNA left (log2)
1,TTACCAT,-0.0911
2,ATCACCA,-0.0432
3,TTTGTTA,-0.0218
4,ATGGGGG,0.005
5,CAACCAG,-0.157
6,AATGAAC,0.155
7,TCCAGTC,-0.107
8,AGCAGCT,-0.0356
9,CTTTGTG,-0.0782
10,AAGGGCT,0.104
11,TCGCCTC,0.00809
12,ATCTATA,0.0113
13,ATTCGTC,-0.131
14,CGTATGT,-0.2
15,CACCGCG,-0.0729
16,GCAATAA,0.115
17,GACACCC,-0.0437
18,TATGTGT,-0.0361
19,CAAGAAT,-0.0439
20,GATTCAT,-0.014

row,Sequence,uncleaved DNA left (log2)
1,TCCTGTA,-0.177
2,CTTAGGA,0.296
3,CGCGCGA,-0.279
4,TCCGGAA,0.14
5,TGGCCCG,-0.0263
6,TTAAAGC,-0.0427
7,GTCCTAA,0.112
8,GCTGTTT,-0.00323
9,AATATCT,-0.0514
10,CTGCATA,-0.0467
11,AGTGTAA,0.031
12,GTAGGTC,0.181
13,AACGTCC,-0.169
14,TCTAACG,-0.0563
15,TCACAGC,-0.0989
16,CATCCTC,-0.0937
17,CGCGGTA,-0.00778
18,TATTGGG,0.00411
19,CGTAACG,-0.0802
20,TAAGGAC,0.0811
